From the supplement of paper PMC10126150
Sequences with one replicate were seen in a single cluster, so their values are uncertain.

What follows are sequences tested on ATP (assay: switch fluorescence ratio, 500 uM ATP over buffer (Cy3 cluster intensity, sum of 5 cycles each) (fold (ratio)); higher = stronger signal-on switching upon ATP binding; sequences stand for … in TCGTCGGCAGCGTCAGATGTGTATAAGAGACAGTTTTTTTTTTTTTTTTTTTTTTTTT…TC). Settings: aptamer strand: ATP DNA aptamer (quencher-CACCTGGGGGAGTATTGCGGAGGAAGG + anchor), 100 nM annealed; ATP concentration: 500 uM; one replicate.
Method in brief: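 Cy3-labelled switching-strand clusters on a modified Illumina MiSeq flow-cell were annealed to 100 nM quencher-labelled ATP aptamer and imaged first in selection buffer, then after 15 min with 500 uM ATP at 22 °C. NaOH stripping and re-annealing separated each of five buffer/ATP cycles, and clusters outside 100-1000 RFU were excluded. The fluorescence ratio sums target-cycle Cy3 intensity over buffer-cycle Cy3 intensity per cluster and averages it per switch-domain sequence.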
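Also: ATP exposure 15 min at 22 °C before imaging.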

Sequence | switch fluorescence ratio
GCAGGGATCC | 1.02
GCAGGGGTAA | 0.985
GCAGGTCCGT | 0.992
GCAGGTTGTG | 1.02
GCAGTACTTG | 1.28
GCAGTCCCAT | 1.04
GCAGTTGGCT | 0.924
GCATACATTC | 0.993
GCATAGTGCT | 1.04
GCATAGTGGA | 1.01
GCATATTAGT | 0.977
GCATCATTAA | 0.99
GCATCGACGG | 1.04
GCATCTAGCT | 1.01
GCATCTCTAC | 1.09
GCATCTTTAA | 0.967
GCATGACCAT | 0.981
GCATGATCGG | 0.977
GCATGATGAG | 1.02
GCATGCCTGT | 1.01
GCATGCGCCC | 1.26
GCATGGTAGT | 1.03
GCATGGTG | 1.04
GCATGTACGG | 1.1
GCATGTCAAT | 1

Sequence | switch fluorescence ratio
GCATGTGGTA | 1
GCATGTGGTG | 0.997
GCATTAGGAG | 1.05
GCATTCGTTC | 1.06
GCATTGAAGA | 0.994
GCATTGATAA | 1.02
GCATTTATT | 1.06
GCATTTTGGT | 0.942
GCATTTTTT | 1.01
GCCAAAAACG | 1.04
GCCAAAAAGT | 0.982
GCCAAAATG | 0.982
GCCAAATGGA | 1.01
GCCAACACGT | 1.02
GCCAACGAGC | 1.07
GCCAACGCGT | 0.998
GCCAACTGCG | 0.941
GCCAAGCCCA | 0.968
GCCAAGGTAT | 0.948
GCCAAGTAAG | 0.996
GCCACACACT | 1.4
GCCACCATTC | 1.04
GCCACGATTT | 0.996
GCCAGAGCTT | 1.06
GCCAGAGTTG | 0.982

Sequence | switch fluorescence ratio
GCCAGGCCTA | 0.997
GCCAGTAAAG | 1.03
GCCAGTGTCG | 1.06
GCCAGTTTCG | 1.01
GCCATAAATT | 1.06
GCCATACGT | 1.14
GCCATCTGTT | 1.02
GCCATGATTC | 0.958
GCCATGGATT | 1.01
GCCATTTCTG | 1.01
GCCCAATTGT | 1.03
GCCCACCTAG | 1.05
GCCCAGGGCT | 0.997
GCCCATATTA | 1
GCCCATTTAA | 1.04
GCCCCCGATT | 0.996
GCCCCGGCTT | 1.03
GCCCCTCTTG | 1.03
GCCCGAAACG | 1.03
GCCCGAACGT | 0.976
GCCCGACTTT | 0.966
GCCCGAGGGT | 0.986
GCCCGCTGTT | 0.998
GCCCGGACTA | 1.03
GCCCGGAGAT | 1.04

Sequence | switch fluorescence ratio
GCCCGGGTCT | 0.941
GCCCTACCGA | 1.09
GCCCTAGTCA | 0.988
GCCCTTCTAG | 0.983
GCCCTTGGAA | 0.998
GCCGAAGATT | 1.01
GCCGAGAGAC | 1.5
GCCGATTCTC | 0.96
GCCGCATGCG | 1.04
GCCGCCGCT | 1.17
GCCGCTCAAG | 1.02
GCCGCTGCAC | 1.34
GCCGCTGCTT | 1.04
GCCGCTTCTA | 1.05
GCCGCTTTGT | 1
GCCGGCAGTG | 0.937
GCCGGCGCTG | 1
GCCGGTACAG | 1
GCCGGTCCGG | 1.02
GCCGGTGTAA | 0.977
GCCGTAACCG | 1
GCCGTAAGGG | 0.97
GCCGTAATAA | 3.51
GCCGTAATCC | 1.49
GCCGTACTCG | 1.04
